Out of some 44,000 compounds screened, about 340 (0.77%) were called active. Not shown: some 5% with an inconclusive outcome. Calls come from the whole dose curve; as a rule, active = well fitted inhibition curve with a large enough effect; inconclusive = small, poorly fitted or top-dose-only effect; inactive = flat fitted curve, though single readings scatter. Some of the results follow.
Experiment: Acumen qHTS Assay for Inhibitors of the mTORC1 Signaling Pathway in MEF (Tsc2-/-, p53-/-) Cells: Sytravon; note: nearly all actives have a fitted effect of over 50% in size;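 for activity change, negative = inhibition: plate controls were DMSO for no effect and rapamycin for full effect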
Settings: phospho-rpS6 immunofluorescence/PI, 24 h; series mostly up to 38.3 µM; activity change, negative = inhibition: at the top concentration
In short: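 Tsc2-/-, p53-/- MEFs (empty-vector stable line) in DMEM + 10% FBS were treated with compounds 24 h at 37 degree Celsius, fixed, and immunostained for phospho-rpS6 (Alexa-488) with propidium iodide counterstain. Laser-scanning cytometry gave % positive cells, normalized against 7.5 nM rapamycin and DMSO.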
Potency is the fitted concentration of half-maximal effect.

Row | SMILES | activity change, negative = inhibition | Potency
1 | c1ccc(N2CCN(Cc3nnc(-c4ccc5c(c4)OCO5)o3)CC2)cc1 | inactive: 1.18% | –
2 | CCOC(=O)c1cc2c(=O)n3ccccc3nc2n(CCOC)c1=NC(=O)c1cc2ccccc2o1 | inactive: -0.397% | –
3 | COc1ccc(C2=NS(=O)(=O)N(C)C(C(=O)Nc3ccc(OC(F)(F)F)cc3)=C2)cc1 | inactive: -19.5% | –
4 | CN(Cc1ccccc1)S(=O)(=O)c1nnc(NC(=O)c2ccccc2Cl)s1 | inactive: 3.12% | –
5 | Cc1nn(-c2ccc(N3CCCC3)nn2)c(C)c1CCC(=O)NCc1ccccc1 | inactive: -10.1% | –
6 | COc1cccc(-c2ccc3c(N)c(C(=O)c4ccc(F)cc4)sc3n2)c1 | inactive: -2.69% | –
7 | CC(NC(=O)CCCN1C(=O)CCn2nc(-c3cn(C)c4ccccc34)cc21)c1ccccc1 (stereo not drawn) | inactive: -9.87% | –
8 | CCOC(=O)c1c(C)oc2nc(C)nc(NCC3CCN(Cc4ccc(F)cc4)CC3)c12 | inactive: 0.121% | –
9 | COc1ccc(CNc2ncnc3c2cnn3-c2ccc(Cl)cc2)cc1 | inactive: -4.95% | –
10 | O=C(Nc1ccc(Cl)c(-c2nc3ccccc3o2)c1)c1cccc2c(Cl)cccc12 | inactive: -1.7% | –
11 | COc1ccc(Nc2ccc3cc(S(=O)(=O)N4CCCC4)ccc3n2)cc1OC | inactive: 3.87% | –
12 | Cc1ccc(CSC2=Nc3ccccc3C3=NC(CCC(=O)NCc4cccs4)C(=O)N23)c(C)c1 (stereo not drawn) | inactive: -2.86% | –
13 | Cc1cc(N2CCN(C)CC2)nc2ccc(NC(=O)Nc3ccc(F)cc3F)cc12 | inactive: -3.54% | –
14 | CCOC(=O)c1ccc(N2CCN(c3cc(Cl)ccc3C)CC2)c(NC(=O)Nc2ccc(OCC)cc2)c1 | inactive: 6.81% | –
15 | Cc1ccc(-n2c(=O)c3c(c4cc(C)ccc4n3C)n(CC(=O)NCC3CCCO3)c2=O)cc1 (stereo not drawn) | inactive: 1.74% | –
16 | Cc1ccc(NS(=O)(=O)c2c(C)nc3sccn3c2=O)c(Cl)c1 | inactive: -0.0219% | –
17 | COc1cc(Cl)c(NC(=O)CC(C)S(=O)(=O)c2cc3c(cc2C)NC(=O)CO3)c(OC)c1 (stereo not drawn) | inactive: 1.11% | –
18 | Cc1ccc(NC(=O)CSc2nncn3c2cc2sccc23)cc1F | inactive: 1.74% | –
19 | CC(C)c1ccc(NC(=O)c2cc(S(=O)(=O)N3CCc4ccccc4C3)ccc2F)cc1 | inactive: -8.5% | –
20 | Cc1nn(-c2ccc(N3CCCC3)nn2)c(C)c1CCC(=O)Nc1ccccc1 | inactive: -6.16% | –
21 | CCCCOC(=O)c1ccc(NC2=NS(=O)(=O)c3ccccc32)cc1 | inactive: 0.284% | –
22 | Cc1cccc(NC(=O)CCn2nc(C)c3c(C)n(-c4ccccc4)nc3c2=O)c1C | inactive: 0% | –
23 | Cc1ccc(-c2nc3n(n2)C(=O)CC(c2ccc(C)cc2)S3)cc1 (stereo not drawn) | inactive: -1.5% | –
24 | COc1ccc(S(=O)(=O)NCc2ccc3c(c2)CCN3C(C)=O)cc1OC | inactive: 4.22% | –

Row | SMILES | activity change, negative = inhibition | Potency
25 | Cc1ccc(NC(=O)CCS(=O)(=O)c2ccc3nc(C)sc3c2)c(C)c1 | inactive: -3.64% | –
26 | CCOc1ccc(CN2C(=O)c3ccccc3Sc3ccc(C(=O)NCCCN4CCOCC4)cc32)cc1 | inactive: -12.5% | –
27 | CCOc1ccc(S(=O)(=O)N(CC(=O)NCCc2ccc(OC)cc2)c2ccccc2)cc1 | inactive: -16.1% | –
28 | COc1ccccc1N1CCN(c2c(CN3CCCC3)c(=O)oc3ccccc23)CC1 | inactive: -7.07% | –
29 | Cc1ccc(OCC(=O)N(Cc2nc(-c3ccccc3)no2)C(C)C)cc1C | inactive: -8% | –
30 | Cc1ccc(S(=O)(=O)N2CCCc3cc(NS(=O)(=O)c4ccccc4)ccc32)cc1 | inactive: 16% | –
31 | CCOc1ccc(C(=O)Nc2ccc(NC(=O)c3ccccc3)cc2)cc1Br | inactive: -0.868% | –
32 | CCOC(=O)c1ccc(N2CCN(c3ccc(F)cc3)CC2)c(NC(=O)Nc2ccc(CC)cc2)c1 | inactive: 6.05% | –
33 | CCOC(=O)CNC(=O)Nc1cc(C(=O)NCc2ccc(C(C)C)cc2)ccc1N1CCCC1 | inactive: 9.66% | –
34 | Cc1ccc2[nH]c(=O)c3cc(C(=O)NCc4cccc(Cl)c4)sc3c2c1 | inactive: -13.2% | –
35 | Cc1cc(OCC(=O)Nc2sc3c(c2C#N)CCC(C)C3)ccc1Cl (stereo not drawn) | inactive: 6.29% | –
36 | COc1ccccc1-c1noc(CSc2nnc(-c3ccccc3)n2-c2ccc(C)c(C)c2)n1 | inactive: -10.2% | –
37 | Cc1cc(C)c(/C=C/c2onc(C)c2S(=O)(=O)N2CCC(C(=O)Nc3cccc(C)c3C)CC2)c(C)c1 | inactive: 2.85% | –
38 | CC(=O)c1ccc(NC(=O)CSc2nc(-c3ccccc3C)nc3c2c(=O)n(C)c(=O)n3C)cc1 | inactive: -12.8% | –
39 | CCOC(=O)c1c(C)oc2nc(C)nc(N(C)Cc3ccccc3)c12 | inactive: 0.713% | –
40 | CCOc1ccc(C(=O)c2cn(Cc3cccc(OC)c3)c3cc4c(cc3c2=O)OCO4)cc1 | inactive: 3.57% | –
41 | O=C(CSc1ncc(-c2ccc(Cl)cc2)[nH]1)Nc1ccccc1F | inactive: 3.58% | –
42 | O=C(C1CCCN(S(=O)(=O)c2cccc3nonc23)C1)N1CCN(c2cccc(C(F)(F)F)c2)CC1 (stereo not drawn) | inactive: -2.83% | –
43 | COc1cc2c(cc1OC)C(CC(=O)O)N(C(=O)Nc1cc(OC)c(OC)c(OC)c1)CC2 (stereo not drawn) | inactive: 3.29% | –
44 | Cc1ccc(C)c(N2CCN(CCCNC(=O)c3ccc4nc(N5CCC(C)CC5)sc4c3)CC2)c1 | inactive: 0.721% | –
45 | CCc1ccc(C2=NN(CCC(=O)NCCc3ccccc3)C(=O)CC2)cc1 | inactive: -3.43% | –
46 | CCc1c(C)c2cc3c(c(C)c2oc1=O)OCN(CCc1ccc(OC)c(OC)c1)C3 | inactive: -4.69% | –
47 | COc1ccc(-n2c(=O)c3c4c(sc3n(Cc3ccccc3C)c2=O)CCCC4)c(OC)c1 | inactive: -19.2% | –
48 | CC(=O)c1ccc(Nc2cc(C)nc3nc(Cc4ccccc4)nn23)cc1 | inactive: 0.234% | –

Row | SMILES | activity change, negative = inhibition | Potency
49 | COc1ccc(N(CC(=O)NCCc2ccccc2)S(=O)(=O)c2c(C)nn(C)c2C)cc1 | inactive: 0.718% | –
50 | CCCn1c2ccccc2c2cnn(CC(=O)Nc3cc(OC)c(OC)c(OC)c3)c(=O)c21 | inactive: -1.87% | –
51 | CCC1(C)CC(=O)c2c(ccc3oc(C(=O)Nc4ccc(C(C)=O)cc4)c(C)c23)O1 (stereo not drawn) | inactive: -0.39% | –
52 | CCOc1ccc(C(=O)NCCc2csc(-c3cccc(C)c3)n2)cc1 | inactive: -13.3% | –
53 | CCc1nc2ccc(C(=O)N3CCN(c4cccc(Cl)c4)CC3)cc2nc1CC | inactive: 1.85% | –
54 | CC(C)c1ccc(Nc2sc(C(=O)c3ccccc3)c(N)c2S(=O)(=O)c2ccccc2)cc1 | inactive: 1.58% | –
55 | CC(C)CC(=O)Nc1nnc(S(=O)(=O)N2c3ccccc3CC2C)s1 (stereo not drawn) | inactive: 3.59% | –
56 | Cc1ccc(N2CCN(C(=O)Cn3ncc4c([nH]c5ccc(C)cc54)c3=O)CC2)c(C)c1 | inactive: 1.38% | –
57 | CCc1ccc(C(=O)COC(=O)C(NC(=O)C2CCC(C)CC2)C(C)C)cc1 (stereo not drawn) | inactive: -5.05% | –
58 | CCOCCOC(=O)c1ccc2c(c1)N(Cc1ccccc1C#N)C(=O)c1ccccc1S2(=O)=O | inactive: 3.89% | –
59 | CCN(c1ccccc1)S(=O)(=O)c1ccc(NC(=O)c2nc(S(C)(=O)=O)ncc2Cl)cc1 | – | active: 3.29 µM
60 | CCOc1ccc(CCNC(=O)CCCn2c(=O)c3cccn3c3cccnc32)cc1 | inactive: 0.126% | –
61 | COc1cc(CNC(=O)c2cnc3c(-c4cccc(C)c4)c(C)nn3c2C)cc(OC)c1OC | inactive: -14.1% | –
62 | COc1ccc(-c2cc3ccc(O)c(CN4CCN(C)CC4)c3oc2=O)cc1OC | inactive: -20.9% | –
63 | CC(=O)Nc1ccc(Nc2ccc3cc(S(=O)(=O)N4CCCCC4)ccc3n2)cc1 | inactive: 2.31% | –
64 | O=C(NC1CC(=O)N(c2ccc(Cl)cc2)C1)c1cc2ccccc2o1 (stereo not drawn) | inactive: -5.6% | –
65 | CCCc1ccc(OCC(=O)Nc2sc3c(c2C(=O)OCC)CCC(C(C)(C)C)C3)cc1 (stereo not drawn) | inactive: -7.99% | –
66 | Nc1cc(=O)nc(SCC(=O)Nc2ccccc2)n1CCc1ccccc1 | inactive: 0.252% | –
67 | COc1ccc2c(c1)c1c(c(=O)n(-c3cccc(C)c3)c(=O)n1CC(=O)NCCC1=CCCCC1)n2C | inactive: -14% | –
68 | COc1ccccc1Nc1nc(-c2ccccc2)c(CC(=O)O)s1 | inactive: 0.921% | –
69 | CCOC(=O)c1c(-c2ccc(OC)c(OC)c2)csc1NC(=O)c1ccccc1F | inactive: -6.23% | –
70 | Cc1cccc(CNS(=O)(=O)c2ccc(-c3coc(C)n3)cc2)c1 | inactive: -5.56% | –
71 | O=c1c2cccnc2n(Cc2cccc(F)c2)c(=O)n1Cc1ccc(F)cc1 | inactive: -1.11% | –
72 | COc1ccc2[nH]cc(CCNC(=O)Nc3cc(C)cc(C)c3)c2c1 | inactive: -2.41% | –

Row | SMILES | activity change, negative = inhibition | Potency
73 | CCC(Nc1ccc(-c2nc(-c3cccnc3)no2)cc1[N+](=O)[O-])c1ccccc1 (stereo not drawn) | inactive: 1.97% | –
74 | Cc1ccccc1OCC(=O)Nc1ccc2nc(SCC(=O)N3CCCC3)sc2c1 | inactive: -1.44% | –
75 | O=C1Cc2cc(S(=O)(=O)Nc3ccc(OC(F)(F)F)cc3)cc3c2N1CCC3 | inactive: -3.02% | –
76 | CCOC(=O)c1cc(-c2ccc(OC)c(S(=O)(=O)N3CCN(c4ccccc4)CC3)c2)on1 | inactive: 9.63% | –
77 | COc1ccc(S(=O)(=O)c2nnn(-c3cccc(Cl)c3)c2N)cc1 | inactive: -2.41% | –
78 | CCOC(=O)c1c(S(=O)(=O)N2CCC(C(=O)NCc3ccccc3Cl)CC2)c(C)n(C)c1C | inactive: 0.25% | –
79 | COCCn1ccc2c(OCC(=O)Nc3cccc(C(F)(F)F)c3)cccc2c1=O | inactive: -8.62% | –
80 | COc1cccc(CNC(=O)c2ccc3c(c2)sc2nc(-c4cccc(OC)c4)cn23)c1 | inactive: -3.48% | –
81 | COc1ccc(N2CC(NC(=O)C(c3ccccc3)c3ccccc3)CC2=O)cc1 (stereo not drawn) | inactive: -1.07% | –
82 | CCOC(=O)c1ccc(NC(=O)Cn2nc(C)c3nn(-c4ccc(Cl)cc4)c(C)c3c2=O)cc1 | inactive: 7.54% | –
83 | CCOC(=O)c1c(NC(=O)C(C)Sc2cn(CCNC(=O)c3ccc(OCC)cc3)c3ccccc23)sc2c1CCC2 (stereo not drawn) | inactive: 10.9% | –
84 | Cc1cccc(N2CCN(C(=O)c3cnn(-c4ccccc4)c3C3CCN(C(=O)OC(C)(C)C)CC3)CC2)c1C | inactive: -19.9% | –
85 | Clc1ccc(CSc2nncn3c2cc2occc23)cc1 | inactive: 0.254% | –
86 | Cc1ccc(Nc2ncnc3c2nc2n3CCCC2)cc1F | inactive: -1.16% | –
87 | Cc1nc2nc[nH]n2c(=O)c1NS(=O)(=O)c1ccc(Br)cc1 | inactive: -13.5% | –
88 | COc1ccccc1CNC(=O)C1CCN(S(=O)(=O)Cc2ccccc2)CC1 | inactive: -0.553% | –
89 | CC1=C(c2ccc(Cl)cc2)S(=O)(=O)N=C1N1CCN(c2cc(C)ccc2C)CC1 | inactive: 1.43% | –
90 | COc1ccc(CNC(=O)C(=O)NCC(c2cccnc2)N2CCN(c3ccccc3)CC2)cc1 (stereo not drawn) | inactive: -4.04% | –
91 | Cc1cccc(N(C)S(=O)(=O)c2ccc3c(c2)NC(=O)CC(=O)N3)c1 | inactive: -6.55% | –
92 | Cc1cc(C)cc(-n2c(SCC(=O)Nc3ccc4c(c3)OCO4)nc3c([nH]c4ccccc43)c2=O)c1 | inactive: -10.7% | –
93 | COc1cccc(Cn2c(=O)n(Cc3ccccc3)c(=O)c3c2c2cc(OC)ccc2n3C)c1 | inactive: -4.59% | –

— PubChem BioAssay AID493208 (National Center for Advancing Translational Sciences (NCATS), 2011)
